One assay concerns the target T1, myc-tagged PTCH1(1-1316) (UniProt Q13635).
T1 sequence: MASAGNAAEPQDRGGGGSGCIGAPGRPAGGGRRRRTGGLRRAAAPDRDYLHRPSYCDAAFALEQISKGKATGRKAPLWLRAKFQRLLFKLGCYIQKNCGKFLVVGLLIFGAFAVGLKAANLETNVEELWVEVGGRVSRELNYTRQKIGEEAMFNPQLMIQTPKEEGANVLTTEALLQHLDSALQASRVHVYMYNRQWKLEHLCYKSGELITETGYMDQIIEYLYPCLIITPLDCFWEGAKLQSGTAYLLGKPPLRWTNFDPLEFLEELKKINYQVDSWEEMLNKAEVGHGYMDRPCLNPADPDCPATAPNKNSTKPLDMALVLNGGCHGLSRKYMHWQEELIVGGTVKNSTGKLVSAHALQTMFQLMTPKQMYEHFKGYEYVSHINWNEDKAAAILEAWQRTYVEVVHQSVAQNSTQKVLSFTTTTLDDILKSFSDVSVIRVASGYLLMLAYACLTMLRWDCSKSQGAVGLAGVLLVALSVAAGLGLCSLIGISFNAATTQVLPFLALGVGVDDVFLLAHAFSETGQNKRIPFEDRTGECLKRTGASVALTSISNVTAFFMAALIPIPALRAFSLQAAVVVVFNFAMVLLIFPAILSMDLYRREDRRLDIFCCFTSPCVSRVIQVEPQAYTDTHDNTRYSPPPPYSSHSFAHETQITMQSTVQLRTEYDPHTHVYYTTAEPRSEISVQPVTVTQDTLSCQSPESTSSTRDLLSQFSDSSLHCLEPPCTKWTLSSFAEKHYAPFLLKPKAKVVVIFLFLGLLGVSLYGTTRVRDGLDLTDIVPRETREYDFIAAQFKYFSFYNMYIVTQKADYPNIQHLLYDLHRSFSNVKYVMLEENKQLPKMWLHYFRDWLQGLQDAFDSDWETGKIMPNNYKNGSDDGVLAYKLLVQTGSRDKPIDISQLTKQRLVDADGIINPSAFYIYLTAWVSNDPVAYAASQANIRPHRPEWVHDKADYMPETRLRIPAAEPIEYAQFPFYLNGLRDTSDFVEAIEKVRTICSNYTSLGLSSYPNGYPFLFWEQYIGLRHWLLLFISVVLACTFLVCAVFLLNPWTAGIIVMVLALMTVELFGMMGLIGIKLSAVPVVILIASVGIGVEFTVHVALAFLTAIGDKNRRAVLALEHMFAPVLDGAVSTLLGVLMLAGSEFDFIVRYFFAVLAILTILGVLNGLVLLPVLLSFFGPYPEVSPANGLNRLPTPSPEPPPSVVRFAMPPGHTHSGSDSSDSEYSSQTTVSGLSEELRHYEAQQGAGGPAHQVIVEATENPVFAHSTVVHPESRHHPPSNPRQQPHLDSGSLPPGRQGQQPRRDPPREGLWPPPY
Kind of assay: co-IP; HEK293 cells co-transfected with myc-PTCH1 variants and ATG101-FLAG; PTCH1 variants immunoprecipitated by the myc tag, immunoblotting; lysis buffer 50 mM Tris HCl pH 7.5, 150 mM NaCl, 1% NP-40, 0.05% sodium deoxycholate, 4 °C.

Assay [1] concerns the target T2, myc-tagged wild-type PTCH1(1-1447) (UniProt Q13635).
T2 sequence: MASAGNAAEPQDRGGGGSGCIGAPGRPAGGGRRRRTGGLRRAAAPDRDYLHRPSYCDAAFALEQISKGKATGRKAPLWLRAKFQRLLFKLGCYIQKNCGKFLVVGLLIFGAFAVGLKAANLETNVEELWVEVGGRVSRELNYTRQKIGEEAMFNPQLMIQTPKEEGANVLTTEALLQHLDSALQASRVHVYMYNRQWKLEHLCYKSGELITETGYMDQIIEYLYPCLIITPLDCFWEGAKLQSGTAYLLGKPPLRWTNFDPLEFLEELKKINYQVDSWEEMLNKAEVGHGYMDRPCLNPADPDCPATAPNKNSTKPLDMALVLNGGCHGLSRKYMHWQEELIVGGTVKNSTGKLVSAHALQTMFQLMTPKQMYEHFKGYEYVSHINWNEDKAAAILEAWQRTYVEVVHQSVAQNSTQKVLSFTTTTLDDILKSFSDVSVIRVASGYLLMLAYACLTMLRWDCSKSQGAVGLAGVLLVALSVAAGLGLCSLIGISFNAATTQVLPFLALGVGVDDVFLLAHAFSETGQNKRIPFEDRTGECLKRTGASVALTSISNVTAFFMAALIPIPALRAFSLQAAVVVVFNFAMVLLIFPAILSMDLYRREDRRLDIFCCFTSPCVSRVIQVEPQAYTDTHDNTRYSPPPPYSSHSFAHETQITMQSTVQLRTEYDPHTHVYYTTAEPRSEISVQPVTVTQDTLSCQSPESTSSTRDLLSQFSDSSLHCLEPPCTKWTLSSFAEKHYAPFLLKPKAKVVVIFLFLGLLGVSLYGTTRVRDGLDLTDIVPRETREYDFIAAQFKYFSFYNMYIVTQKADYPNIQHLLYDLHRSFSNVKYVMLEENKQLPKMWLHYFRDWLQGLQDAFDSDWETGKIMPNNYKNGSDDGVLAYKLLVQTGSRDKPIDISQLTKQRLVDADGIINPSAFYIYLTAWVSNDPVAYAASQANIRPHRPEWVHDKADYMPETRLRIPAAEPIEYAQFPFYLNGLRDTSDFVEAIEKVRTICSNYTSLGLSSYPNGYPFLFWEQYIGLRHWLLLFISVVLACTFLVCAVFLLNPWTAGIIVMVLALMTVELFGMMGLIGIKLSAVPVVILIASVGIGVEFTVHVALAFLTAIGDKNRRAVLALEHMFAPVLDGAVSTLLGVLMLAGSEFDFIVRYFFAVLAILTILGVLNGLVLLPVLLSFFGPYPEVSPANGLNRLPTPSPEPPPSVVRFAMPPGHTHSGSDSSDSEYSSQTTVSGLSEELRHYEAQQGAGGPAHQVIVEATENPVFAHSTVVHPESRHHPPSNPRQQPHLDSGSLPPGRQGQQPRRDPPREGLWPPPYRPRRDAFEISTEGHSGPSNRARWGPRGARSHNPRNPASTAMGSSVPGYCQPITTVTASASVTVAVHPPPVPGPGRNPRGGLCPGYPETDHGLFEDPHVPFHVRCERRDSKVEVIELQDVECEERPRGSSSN
The assay is described as above.

Results are given in words; binding and its absence hold for the method and conditions named. Binding seen in cells or lysates may run through a third protein. Some binding calls cover weakened binding; strength is not graded here. Where a sequence is shown, tags or fusion partners need not be part of it.

Our source for the binding values is PMC9856372.

B1: ATG101-FLAG (protein, UniProt Q9BSB4 1-218)
chain: MNCRSEVLEVSVEGRQVEEAMLAVLHTVLLHRSTGKFHYKKEGTYSIGTVGTQDVDCDFIDFTYVRVSSEELDRALRKVVGEFKDALRNSGGDGLGQMSLEFYQKKKSRWPFSDECIPWEVWTVKVHVVALATEQERQICREKVGEKLCEKIINIVEVMNRHEYLPKMPTQSEVDNVFDTGLRDVQPYLYKISFQITDALGTSVTTTMRRLIKDTLAL
As to B1, the binding entry is “no binding” in the assay with myc-tagged PTCH1(1-1316) and “binds” in assay [1].
